IC50 is the fitted dose that halves viability relative to control wells, and lower means more sensitive; a limit (>, <) means that the fit lies beyond the doses tested. AUC sums up the same curve from the lowest dose to the 256-fold higher top dose: 1 means no effect, lower means more sensitive. An inferred top dose comes from the curve model; the source does not state it.
Compound: N.N.[Cl][Pt][Cl] [Cisplatin]
Assay: Viability of human cancer cell lines after 72 h of drug (GDSC screen)
Settings: top dose inferred
Description: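 Human cancer cell lines in 384-well plates, medium with 10% serum, drug for 72 h over a 256-fold dose range (nine 2-fold or five 4-fold steps up to the top dose). Adherent lines were fixed and stained with the nucleic acid dye Syto60, suspension lines read with resazurin; signal relative to control wells, capped at 0 and 100%. One two-parameter sigmoid per drug and line, fitted in a mixed model over all curves with the slope shared within a line.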

Cell Line	AUC	IC50 [µM]
Hs766T (pancreas, adherent, top dose 10 µM)	0.885	> 10
Hs939-T (melanoma, adherent, top dose 10 µM)	0.899	> 10
Hs-578-T (breast, adherent, top dose 10 µM)	0.886	> 10
HuCCT1 (biliary tract, adherent, top dose 10 µM)	0.944	> 10
HuH-7 (liver, adherent, top dose 10 µM)	0.91	> 10
HuO9 (osteosarcoma, adherent, top dose 10 µM)	0.857	9.65
HuO-3N1 (osteosarcoma, adherent, top dose 10 µM)	0.903	> 10
HuP-T3 (pancreas, adherent, top dose 10 µM)	0.901	> 10
HuP-T4 (pancreas, adherent, top dose 10 µM)	0.833	7.03
IA-LM (large cell lung carcinoma, adherent, top dose 10 µM)	0.903	> 10
IGR-1 (melanoma, adherent, top dose 10 µM)	0.956	> 10
IGR-37 (melanoma, adherent, top dose 10 µM)	0.865	7.58
IGROV-1 (ovary, adherent, top dose 10 µM)	0.877	> 10
IHH-4 (thyroid, semi-adherent, top dose 10 µM)	0.8	3.76
IM-9 (myeloma, suspension, top dose 10 µM)	0.946	> 10
IMR-5 (neuroblastoma, adherent, top dose 10 µM)	0.843	5.5
IPC-298 (melanoma, adherent, top dose 10 µM)	0.928	> 10
IST-MEL1 (melanoma, adherent, top dose 10 µM)	0.889	> 10
IST-SL1 (small cell lung carcinoma, semi-adherent, top dose 10 µM)	0.951	> 10
IST-SL2 (small cell lung carcinoma, suspension, top dose 10 µM)	0.946	> 10
JEG-3 (urogenital system, adherent, top dose 10 µM)	0.856	6.84

Cell Line	AUC	IC50 [µM]
JEKO-1 (B-cell lymphoma, suspension, top dose 10 µM)	0.96	> 10
JHH-1 (liver, adherent, top dose 10 µM)	0.967	> 10
JHH-2 (liver, adherent, top dose 10 µM)	0.938	> 10
JHH-4 (liver, adherent, top dose 10 µM)	0.887	> 10
JHH-6 (liver, adherent, top dose 10 µM)	0.783	4.28
JHH-7 (liver, adherent, top dose 10 µM)	0.887	> 10
JHOS-2 (ovary, adherent, top dose 10 µM)	0.946	> 10
JHOS-3 (ovary, adherent, top dose 10 µM)	0.933	> 10
JHOS-4 (ovary, adherent, top dose 10 µM)	0.872	> 10
JHU-011 (head and neck, adherent, top dose 10 µM)	0.803	4.87
JHU-022 (head and neck, adherent, top dose 10 µM)	0.879	> 10
JHU-029 (head and neck, adherent, top dose 10 µM)	0.735	3.47
JIMT-1 (breast, adherent, top dose 10 µM)	0.891	> 10
JJN-3 (haematopoietic neoplasm, suspension, top dose 10 µM)	0.981	> 10
JM1 (B-cell lymphoma, suspension, top dose 10 µM)	0.812	4.45
JSC-1 (B-cell lymphoma, suspension, top dose 10 µM)	0.926	> 10
JURL-MK1 (chronic myeloid leukaemia, suspension, top dose 10 µM)	0.781	4.12
JVM-2 (lymphoid neoplasm, suspension, top dose 10 µM)	0.864	> 10
JVM-3 (lymphoid neoplasm, suspension, top dose 10 µM)	0.738	3.03
JiyoyeP-2003 (Burkitt lymphoma, suspension, top dose 10 µM)	0.978	> 10
Jurkat (T-cell leukaemia, suspension, top dose 10 µM)	0.949	> 10

Cell Line	AUC	IC50 [µM]
K2 (melanoma, adherent, top dose 10 µM)	0.885	> 10
K5 (thyroid, adherent, top dose 10 µM)	0.781	3.97
KARPAS-45 (lymphoblastic leukaemia, suspension, top dose 10 µM)	0.986	> 10
KARPAS-231 (B-cell leukaemia, suspension, top dose 10 µM)	0.822	4.18
KARPAS-299 (anaplastic large cell lymphoma, suspension, top dose 10 µM)	0.819	4.5
KARPAS-422 (B-cell lymphoma, suspension, top dose 10 µM)	0.978	> 10
KARPAS-620 (haematopoietic neoplasm, suspension, top dose 10 µM)	0.991	> 10
KARPAS-1106P (B-cell lymphoma, suspension, top dose 10 µM)	0.949	> 10
KASUMI-1 (acute myeloid leukaemia, suspension, top dose 10 µM)	0.949	> 10
KATOIII (stomach, semi-adherent, top dose 10 µM)	0.959	> 10
KCL-22 (chronic myeloid leukaemia, suspension, top dose 10 µM)	0.961	> 10
KE-37 (lymphoblastic leukaemia, suspension, top dose 10 µM)	0.851	5.04
KELLY (neuroblastoma, adherent, top dose 10 µM)	0.917	> 10
KGN (ovary, adherent, top dose 10 µM)	0.897	> 10
KINGS-1 (glioma, adherent, top dose 10 µM)	0.899	> 10
KLE (endometrium, adherent, top dose 10 µM)	0.951	> 10
KM12 (large intestine, adherent, top dose 10 µM)	0.956	> 10
KM-H2 (Hodgkin lymphoma, suspension, top dose 10 µM)	0.966	> 10
KMH-2 (thyroid, adherent, top dose 10 µM)	0.9	> 10
KMOE-2 (acute myeloid leukaemia, suspension, top dose 10 µM)	0.929	> 10
KMRC-1 (kidney, adherent, top dose 10 µM)	0.961	> 10

Cell Line	AUC	IC50 [µM]
KMRC-20 (kidney, adherent, top dose 10 µM)	0.89	> 10
KMS-11 (myeloma, suspension, top dose 10 µM)	0.919	> 10
KMS-12-BM (myeloma, suspension, top dose 10 µM)	0.953	> 10
KNS-42 (glioma, adherent, top dose 10 µM)	0.912	> 10
KNS-62 (lung squamous cell carcinoma, adherent, top dose 10 µM)	0.854	> 10
KNS-81-FD (glioma, adherent, top dose 10 µM)	0.971	> 10
KON (head and neck, adherent, top dose 10 µM)	0.903	> 10
KOPN-8 (B-cell leukaemia, suspension, top dose 10 µM)	0.853	6.16
KP-1N (pancreas, adherent, top dose 10 µM)	0.905	> 10
KP-2 (pancreas, adherent, top dose 10 µM)	0.977	> 10
KP-3 (pancreas, adherent, top dose 10 µM)	0.878	> 10
KP-N-YN (neuroblastoma, adherent, top dose 10 µM)	0.981	> 10
KS-1 (glioma, adherent, top dose 10 µM)	0.905	> 10
KU812 (chronic myeloid leukaemia, suspension, top dose 10 µM)	0.925	> 10
KU-19-19 (bladder, adherent, top dose 10 µM)	0.866	8.93
KURAMOCHI (ovary, adherent, top dose 10 µM)	0.766	4.27
KY821 (leukaemia, suspension, top dose 10 µM)	0.957	> 10
KYAE-1 (oesophagus, suspension, top dose 10 µM)	0.945	> 10
KYM-1 (rhabdomyosarcoma, adherent, top dose 10 µM)	0.796	3.92

Source: the supplement of paper PMC4967469
